# Assay results as given in PubChem BioAssay AID1508642 (National Center for Advancing Translational Sciences (NCATS), 2021).
# About 200 (0.47%) of roughly 43,000 compounds were called active. Inconclusive results, whose numbers are uncertain, are shown with a selection of clear calls. The call rests on the fitted dose curve; in most records, active means well fitted cell-killing curve with a large enough effect; inconclusive means small, poorly fitted or top-dose-only effect, or effect the other way; inactive means flat fitted curve, though single readings scatter. Where the call is inconclusive, the potency comes from a doubtful curve fit.
# Test: Cell viability qHTS assay in S16 Pmp22-F2sN cells; further: nearly all actives have a fitted effect of over 65% in size
# Conditions: S16 Pmp22-F2sN Schwann cells viability, CellTiter-Glo, 24 h; activity change, negative = cytotoxicity: at 57.5 µM (top of the series)
# Method in brief: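 S16 Pmp22-F2sN Schwann cells (500-1,000/well) in phenol-red-free DMEM with 10% FBS received 23 nL compound by pin tool for 24 h at 37 °C. Viability was then read as CellTiter-Glo luminescence after 15 min at room temperature.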
# On the % scale 0 is the no-effect control and ±100 the full control effect; potency means the concentration at half of the fitted maximal effect; tags describe the fitted curve by direction and shape.
SMILES,Potency,"activity change, negative = cytotoxicity"
COc1ccc2c(c1)c1c(c(=O)n(Cc3ccccc3)c(=O)n1CC(=O)Nc1ccccc1OC)n2C,"inconclusive: 0.0282 µM [cytotoxic, full curve]",
CCn1c(C)c(C)c2cc(C(=O)NCC(C)c3ccccc3)ccc21 (stereo not drawn),"inconclusive: 39.8 µM [cytotoxic, single point]",
O=C(CSCc1ccc(F)cc1)N1CCN(c2ccccc2F)CC1,,inactive: -16.2%
Cc1ccc(C(=O)c2cn(Cc3cccc(Cl)c3)c3nc(C)ccc3c2=O)cc1,"inconclusive: 5.01 µM [rising, partial curve, poor fit]",
O=C(CCCn1c2ccccc2c(=O)c2ccccc21)Nc1cccc(Cl)c1,"inconclusive: 31.6 µM [cytotoxic, single point]",
Cc1csc2nc(COC(=O)c3ccccc3NC(=O)c3cccc(Br)c3)cc(=O)n12,"inconclusive: 0.0251 µM [cytotoxic, single point]",
O=C(NCCc1ccc(Cl)cc1)c1c2c(nc3ccccc13)C(=O)N(C1CCCCC1)C2,"inconclusive: 39.8 µM [cytotoxic, single point]",
COc1ccc(-c2nc(CNC(=O)NC3CCCCC3)c(C)o2)cc1,"inconclusive: 2.82 µM [cytotoxic, full curve, poor fit]",
CC1CCCN(CCCNC(=O)c2cc(Sc3ccc(F)cc3)nc3ccccc23)C1 (stereo not drawn),"inconclusive: 28.2 µM [cytotoxic, single point]",
COc1ccc(OC)c(CNC(=O)c2ccc(N3Cc4ccccc4Oc4ncccc43)s2)c1,"inconclusive: 0.316 µM [rising, full curve, poor fit]",
Cc1ccccc1NC(=O)Cn1cc(C(=O)c2ccco2)c2ccccc21,"inconclusive: 15.8 µM [cytotoxic, partial curve, poor fit]",
Cc1ccc(C)c(N2CCN(c3ncnc4c3nc3n4CCCC3)CC2)c1,"inconclusive: 39.8 µM [cytotoxic, single point]",
CCc1ccc2nc(N(Cc3cccnc3)C(=O)c3ccc(C#N)cc3)sc2c1,"inconclusive: 28.2 µM [cytotoxic, single point]",
Cc1ccc(N2CCN(C(=O)c3nn(C)c4c3CS(=O)(=O)c3ccccc3-4)CC2)c(C)c1,"inconclusive: 39.8 µM [cytotoxic, single point]",
CCOC(=O)c1ccc(NC(=O)Cn2nc3c4ccccc4n(Cc4cccc(F)c4)cc-3c2=O)cc1,,inactive: 0.424%
COc1ccc(-c2cc(-c3ccccc3)c(C#N)c(SCC(O)CS(=O)(=O)Cc3ccc(Cl)cc3)n2)cc1 (stereo not drawn),"inconclusive: 3.55 µM [rising, full curve, poor fit]",
CCCN1CCN(c2ncnc3sc(C(=O)Nc4ccc(C(C)C)cc4)c(C)c23)CC1,"inconclusive: 39.8 µM [cytotoxic, single point]",
COc1ccc(CN2CCc3c(c(=O)n4ncc(C(=O)N5CCN(c6ccccc6OC)CC5)c4n3C)C2)cc1,"inconclusive: 11.2 µM [cytotoxic, partial curve]",
COc1cc(SC)ccc1C(=O)Nc1ccc(S(=O)(=O)Nc2nccc(C)n2)cc1,"inconclusive: 7.94 µM [cytotoxic, full curve, poor fit]",

SMILES,Potency,"activity change, negative = cytotoxicity"
COc1ccccc1C(=O)Nc1ccccc1OCc1cc(=O)n2c(C)csc2n1,"inconclusive: 0.708 µM [rising, full curve, poor fit]",
Cc1ccccc1Cn1nnc2c(=O)[nH]c(C3CCN(C(=O)c4ccc(F)cc4)CC3)nc21,,inactive: -14.3%
CCCCCn1c(NCc2ccc(OC)cc2)nc2ccccc21,"inconclusive: 22.4 µM [cytotoxic, partial curve, poor fit]",
Cc1cccc(N(C)c2nc3ccccc3c3nnc(C)n23)c1,,inactive: 19.8%
COC(=O)Cn1c(=O)c2cccn2c2ccc(F)cc21,,inactive: -1.42%
Cc1ccc(C)c(N2CCN(C(=O)c3cn(CC(C)C)c(=O)c4c3c3ccccc3n4C)CC2)c1,"inconclusive: 28.2 µM [cytotoxic, single point]",
Cc1ccc(C)c(CSc2nc(-c3ccccc3F)nc3c2Cc2c(CO)cnc(C)c2O3)c1,"inconclusive: 28.2 µM [cytotoxic, single point]",
CC(C)c1nn2c(=O)cc(COC(=O)c3cccc(NC(=O)COc4ccc(F)cc4)c3)nc2s1,"inconclusive: 39.8 µM [cytotoxic, partial curve, poor fit]",
Cc1cc2c(n1-c1ccc(C(=O)NCCc3ccc(Cl)cc3)cc1)CCCC2,,inactive: -1.62%
CC(=O)N1CCCc2cc(S(=O)(=O)N3CCCC(C(=O)N4CCN(c5cccc(Cl)c5)CC4)C3)ccc21 (stereo not drawn),active: 25.1 µM,
CCOc1ccc(CNC(=O)c2cccc(NC(=O)N3CCSc4ncccc43)c2)cc1OC,"inconclusive: 25.1 µM [cytotoxic, single point]",
COc1ccc(C2C(C(=O)Nc3ccccc3)=C(C)Nc3c(C(=O)Nc4ccccc4)cnn32)cc1 (stereo not drawn),"inconclusive: 39.8 µM [cytotoxic, single point]",
COc1ccc(C)cc1NC(=O)c1noc2c1CSc1ccccc1-2,"inconclusive: 4.47 µM [rising, full curve, poor fit]",
CCOc1ccc(Nc2oc(-c3ccc(COc4ccc(OC)cc4)o3)nc2C#N)cc1,"inconclusive: 39.8 µM [cytotoxic, single point]",
COc1ccccc1OCCn1c(NC(=O)c2ccccc2Cl)nc2ccccc21,"inconclusive: 25.1 µM [cytotoxic, partial curve, poor fit]",
Cc1ccc(NC(=O)C(=O)NCC(c2cccnc2)N2CCN(Cc3ccccc3)CC2)cc1C (stereo not drawn),"inconclusive: 31.6 µM [cytotoxic, single point]",
CCOC(=O)c1c(NC(=O)c2ccc(S(=O)(=O)N3CCC(C)CC3)cc2)sc2c1CCN(C(C)C)C2,"inconclusive: 39.8 µM [cytotoxic, single point]",
COc1ccc(CC(=O)NCCc2sc(-c3ccc(Cl)cc3)nc2C)cc1OC,"inconclusive: 39.8 µM [cytotoxic, partial curve, poor fit]",
COc1ccc(C2=C(C(C)=O)Sc3nnc(-c4ccc(C)cc4)n3N2C(C)=O)cc1OC,"inconclusive: 39.8 µM [cytotoxic, single point]",
